Our source for the binding values is PMC3797589.

By UniProt entry, the sequences of proteins in these tests, tags left out. Where a name states a change or a piece, a line headed by the entry shows the natural chain unless it says otherwise.
UniProt P10415: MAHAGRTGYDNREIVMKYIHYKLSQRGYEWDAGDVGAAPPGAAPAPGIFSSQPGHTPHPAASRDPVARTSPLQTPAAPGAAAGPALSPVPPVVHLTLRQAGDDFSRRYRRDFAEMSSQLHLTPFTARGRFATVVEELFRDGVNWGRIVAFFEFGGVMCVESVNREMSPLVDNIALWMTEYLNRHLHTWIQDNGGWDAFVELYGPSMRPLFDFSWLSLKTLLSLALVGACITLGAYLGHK
UniProt Q07817: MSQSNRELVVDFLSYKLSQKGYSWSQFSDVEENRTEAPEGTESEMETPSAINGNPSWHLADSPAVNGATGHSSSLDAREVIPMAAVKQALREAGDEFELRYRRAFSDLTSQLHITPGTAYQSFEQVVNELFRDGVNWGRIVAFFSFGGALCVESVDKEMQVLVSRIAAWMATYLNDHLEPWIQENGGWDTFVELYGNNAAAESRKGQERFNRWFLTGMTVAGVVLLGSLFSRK
UniProt P38646: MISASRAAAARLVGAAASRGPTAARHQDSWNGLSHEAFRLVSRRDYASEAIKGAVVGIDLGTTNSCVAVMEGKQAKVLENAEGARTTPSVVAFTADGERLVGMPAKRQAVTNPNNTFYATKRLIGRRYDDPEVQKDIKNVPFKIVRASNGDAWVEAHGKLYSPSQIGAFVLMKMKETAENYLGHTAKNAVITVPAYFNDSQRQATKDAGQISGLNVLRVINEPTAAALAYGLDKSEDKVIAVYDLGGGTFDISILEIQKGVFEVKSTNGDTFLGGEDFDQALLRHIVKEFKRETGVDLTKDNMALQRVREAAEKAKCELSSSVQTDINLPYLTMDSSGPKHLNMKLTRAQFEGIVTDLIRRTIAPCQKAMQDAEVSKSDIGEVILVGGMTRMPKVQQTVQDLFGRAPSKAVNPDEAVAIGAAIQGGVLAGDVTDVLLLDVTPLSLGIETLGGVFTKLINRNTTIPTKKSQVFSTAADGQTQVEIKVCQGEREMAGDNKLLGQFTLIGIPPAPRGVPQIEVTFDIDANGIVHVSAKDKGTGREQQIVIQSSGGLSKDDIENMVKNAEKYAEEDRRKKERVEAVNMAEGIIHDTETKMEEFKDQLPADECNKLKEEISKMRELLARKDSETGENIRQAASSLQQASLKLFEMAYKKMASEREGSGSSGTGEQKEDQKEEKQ

Experiment [1] addresses Bcl-2 (endogenous, U2OS control cells) (human (endogenous in U2OS)) (UniProt P10415). The experiment can be described thus: co-IP; Bcl-xL or Bcl-2 immunoprecipitated from lysates of cells transfected with V5-tagged mortalin (full length or deletion mutants), Nonidet P40 lysis buffer, Western blot with anti-V5 tag antibody.
Experiment [2] concerns the target Bcl-xL (endogenous, U2OS control cells) (human (endogenous in U2OS)) (UniProt Q07817). The experiment is described as above.
Experiment [3] deals with V5-tagged full length Bcl-xL (human) (UniProt Q07817). The experiment can be described thus: co-IP; Bcl-xL or Bcl-2 immunocomplexes from U2OS lysates (control and overexpressing cells; 250 ug protein in Nonidet P40 lysis buffer, antibody overnight at 4°C, Protein-A/G plus Agarose), Western blot with anti-mortalin antibody.
Experiment [4] concerns the target Bcl-xL (endogenous, U2OS control cells) (human (endogenous in U2OS)) (UniProt Q07817). The experiment is described as above.

No constants are given. Whether binding was seen depends on the method and setting. In cells and extracts the contact can be indirect. Some entries that bind do so weakly or less than the wild type.

For “V5-tagged mortalin deletion mutant, amino acid residues 252–679 (from UniProt P38646 252-679) (domain or fragment)”, the binding entry in experiment [1] and in experiment [2] was “binds” throughout.
On to “V5-tagged mortalin deletion mutant, amino acid residues 390–679 (from UniProt P38646 390-679) (domain or fragment)”, for which the binding result in experiment [1] and in experiment [2] was “no binding” in each case.
Consider “V5-tagged mortalin deletion mutant, amino acid residues 310–679 (from UniProt P38646 310-679) (domain or fragment)”, for which the binding entry in experiment [1] and in experiment [2] was “binds” each time.
In the case of “Mortalin/mtHsp70/PBP74/Grp75 (mot-2) (from UniProt P38646 47-679)”, the binding entry in experiment [3] and in experiment [4] was “binds” throughout.
For “V5-tagged mortalin deletion mutant, amino acid residues 1–435 (from UniProt P38646 47-435) (domain or fragment)”, the binding result in experiment [1] and in experiment [2] was “binds” throughout.
